From US8101728B2, “TAB molecules” (Danisco US Inc., priority 2005, dated 2012) come the findings set out here.

In the experiment the test system is TLS174T tumor cells. Briefly: Efficacy in xenograft mouse model of human colorectal cancer. To be noted: TAB2.5 1 mg/kg IV, 24 h later GC-Mel 150 mg/kg IV; FIG. 26. In general terms: A xenograft is tissue or cells of one species grown in another, often human tumour cells in immunodeficient mice.

For the substance “glutaryl-cephalosporin-melphalan [GC-Mel]”, the tumor growth inhibition result is recorded as “active in inhibiting the growth of TLS174T tumor cells”.
